Results reported in PubChem BioAssay AID624417 (National Center for Advancing Translational Sciences (NCATS), 2012).
Screen size: about 410,000 compounds; about 6,400 (1.6%) were called active. Inconclusive means that the source gave no clear call. Such entries were picked first, then a sample of the others. The call rests on the fitted dose curve; in most records, active means well fitted inhibition curve with a large enough effect; inconclusive means small, poorly fitted or top-dose-only effect; inactive means no such curve, though single readings can be large or run the other way. A potency beside an inconclusive call is a rough fit, not a confirmed value.

These compounds were tested against Glucagon-like peptide 1 receptor (Homo sapiens) (UniProt P43220) (assay: qHTS of GLP-1 Receptor Inverse Agonists (Inhibition Mode)). Conditions: HEK293 GLP-1R CRE-luciferase, luminescence, 24 h, GLP-1R form is constitutively active; series mostly up to 38.3 µM.
Summary of the method: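 Assay principle: reduced luminescence from a cAMP-responsive reporter in HEK293 cells co-expressing a constitutively active GLP-1R. Conditions: 24 hr compound incubation, 37 deg C, 5% CO2.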
Further: nearly all actives have a fitted effect of over 55% in size.
Potency means the concentration at half of the fitted maximal effect; tags describe the fitted curve by direction and shape.

Sequence of UniProt P43220 (P43220 whole entry, looked up): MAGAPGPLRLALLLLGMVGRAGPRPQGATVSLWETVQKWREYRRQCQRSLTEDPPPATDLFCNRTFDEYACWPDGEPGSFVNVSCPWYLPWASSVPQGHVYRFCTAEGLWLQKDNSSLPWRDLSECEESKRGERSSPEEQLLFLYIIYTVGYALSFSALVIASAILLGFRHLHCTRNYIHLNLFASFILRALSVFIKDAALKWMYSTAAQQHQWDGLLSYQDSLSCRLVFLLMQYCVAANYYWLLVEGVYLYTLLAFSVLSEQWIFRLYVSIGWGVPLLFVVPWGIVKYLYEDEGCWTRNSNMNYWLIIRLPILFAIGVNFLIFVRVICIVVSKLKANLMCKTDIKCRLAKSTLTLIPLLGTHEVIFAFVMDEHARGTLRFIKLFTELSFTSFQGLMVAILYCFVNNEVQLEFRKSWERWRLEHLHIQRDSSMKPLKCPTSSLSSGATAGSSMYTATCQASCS

Potency, inactive:
COc1ccc(Cl)cc1NC(=O)NCCc1c(C)nn(C)c1C
Cc1oc(-c2cccs2)nc1CN1CCN(CC(C)C)C(CCO)C1 (stereo not drawn)
C/C(=N\NC(=O)c1ccc2c(c1)OCO2)c1cccnc1
COc1cc(C2c3c(-c4ccccc4)n[nH]c3C(=O)N2c2ccc(C(=O)O)cc2)ccc1O (stereo not drawn)
O=C(Nc1cnc2ccccn2c1=O)c1ccc(Cl)cc1
CCCCN1C(=O)C(CC(=O)NC(c2ccccc2)c2ccccc2)CC(C(=O)N2CCOCC2)=C1C (stereo not drawn)

Potency, active:
COC(=O)c1sccc1S(=O)(=O)N(CC(=O)Nc1ccc(C)c(F)c1)c1ccc(C)c(C)c1 8.91 µM

Potency, inconclusive:
CCOC(=O)c1c(C)[nH]c(C)c1C(=O)COC(=O)c1ccccc1O 28.2 µM [inhibitor, single point]
CCOCc1c(C(=O)NC2=Nc3ccccc3NC(CC)=C2C(=O)OCC)oc2ccccc12 20 µM [inhibitor, single point]
Cc1noc(N)c1C1(O)C(=O)Nc2c(Cl)cc(Cl)cc21 (stereo not drawn) 14.1 µM [inhibitor, single point]
C[C@@H]1CC=C[C@H]2[C@H]1C(=O)N(Cc1ccccc1)[C@H]2c1ccc(F)c(/C=C/c2ccccc2)c1 12.6 µM [inhibitor, partial curve, poor fit]
COc1ccc(C)c2sc(N(CCCN(C)C)C(=O)c3ccc(S(=O)(=O)N4CCc5ccccc5C4)cc3)nc12 6.31 µM [inhibitor, partial curve, poor fit]
NC1=NC2=C(CCCC2)C2(CCCCC2)S1 14.1 µM [inhibitor, partial curve, poor fit]
CC(C)c1ccc(Nc2nc(N3CCOCC3)nc(N3CCOCC3)n2)cc1 1.26 µM [inhibitor, partial curve, poor fit]
CC(C)(C)c1ccc(C(=O)N2CCC(C(=O)N3CCCCC3)CC2)cc1 28.2 µM [inhibitor, single point]
CSCCC(NS(=O)(=O)c1ccc(Cl)cc1)C(=O)OCC(=O)c1c(C)[nH]c2ccccc12 (stereo not drawn) 8.91 µM [inhibitor, partial curve, poor fit]
Cc1ccc(NC(=O)Nc2cccc([N+](=O)[O-])c2)cc1F 12.6 µM [inhibitor, partial curve, poor fit]
CCc1ccc2nc(NC(=O)CSCc3c(C)noc3C)sc2c1 28.2 µM [inhibitor, single point]
